In all, about 310,000 compounds went through this assay and about 2,200 (0.71%) showed an effect of 50% or more. The effect is printed as a negative number. The list shows a part of the results.
molecular target: human ether-à-go-go-related gene (hERG) potassium channel (human, UniProt Q12809); assay: primary screen, population patch clamp on CHO cells stably expressing hERG
Sequence (Q12809 whole entry, looked up): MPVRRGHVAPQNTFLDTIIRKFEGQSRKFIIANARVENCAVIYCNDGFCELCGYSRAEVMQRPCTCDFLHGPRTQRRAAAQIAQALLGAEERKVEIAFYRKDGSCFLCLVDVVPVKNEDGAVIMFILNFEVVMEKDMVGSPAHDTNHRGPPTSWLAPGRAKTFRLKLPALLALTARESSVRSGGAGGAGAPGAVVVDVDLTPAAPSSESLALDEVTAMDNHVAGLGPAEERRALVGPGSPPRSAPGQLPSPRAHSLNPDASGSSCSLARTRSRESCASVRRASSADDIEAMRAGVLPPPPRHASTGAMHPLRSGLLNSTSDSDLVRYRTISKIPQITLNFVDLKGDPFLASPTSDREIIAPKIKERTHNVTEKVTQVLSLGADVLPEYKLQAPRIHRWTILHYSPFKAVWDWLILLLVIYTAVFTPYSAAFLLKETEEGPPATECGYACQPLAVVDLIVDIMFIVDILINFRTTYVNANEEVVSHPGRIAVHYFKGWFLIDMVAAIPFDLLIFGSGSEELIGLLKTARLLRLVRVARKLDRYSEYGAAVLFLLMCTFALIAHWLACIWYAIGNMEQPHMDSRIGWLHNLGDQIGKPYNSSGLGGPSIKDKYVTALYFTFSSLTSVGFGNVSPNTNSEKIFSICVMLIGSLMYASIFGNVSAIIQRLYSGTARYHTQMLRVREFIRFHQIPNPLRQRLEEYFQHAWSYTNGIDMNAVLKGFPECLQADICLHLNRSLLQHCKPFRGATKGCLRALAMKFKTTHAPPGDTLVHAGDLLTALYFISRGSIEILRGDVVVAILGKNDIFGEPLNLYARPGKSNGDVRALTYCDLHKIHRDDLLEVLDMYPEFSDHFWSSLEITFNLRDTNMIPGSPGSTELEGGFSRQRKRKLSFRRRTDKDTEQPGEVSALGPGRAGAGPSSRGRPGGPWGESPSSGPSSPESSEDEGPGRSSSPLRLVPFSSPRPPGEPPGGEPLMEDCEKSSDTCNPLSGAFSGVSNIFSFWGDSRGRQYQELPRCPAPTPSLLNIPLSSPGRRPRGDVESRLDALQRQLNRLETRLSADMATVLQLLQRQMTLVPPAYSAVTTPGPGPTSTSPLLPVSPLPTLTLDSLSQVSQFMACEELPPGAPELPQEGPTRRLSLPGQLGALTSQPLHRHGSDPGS

SMILES	hERG current change (%, negative = inhibition) at 1uM
CCC1(c2ccccc2)NC(=O)N(CC(=O)N2CCN(S(=O)(=O)c3ccccc3)CC2)C1=O (centres unmarked)	9.63%
Cc1ccc(Sc2c(C)[nH]n(C(C)(C)C)c2=O)cc1	3.61%
Cc1cc(N2C(=O)C(O)=C(C(=O)c3cc4ccccc4o3)C2c2ccc(Br)cc2)no1 (centres unmarked)	13.4%
S=C(N/N=C/c1ccc(Cl)c(Cl)c1)Nc1ccccc1Cl	1.92%
CSc1ccc(C(=O)C2CCCN(Cc3cc4ccccc4[nH]3)C2)cc1 (centres unmarked)	-40.6%
O=C(CC1S/C(=N\S(=O)(=O)c2ccc(F)cc2)N(c2ccccc2)C1=O)Nc1ccccc1 (centres unmarked)	14.9%
CCOC(=O)NC(=O)c1cn(Nc2ncc(C(F)(F)F)cc2Cl)c(=O)[nH]c1=O	17.1%
COCCN(Cc1cc2cc3c(cc2nc1Cl)OCO3)C(=O)Nc1ccc(OC)cc1	15%
Cc1ccc(Cc2ccc(C(=O)NNC(N)=S)o2)cc1	3.74%
C=CCS(=O)(=O)N1CCCC(N(C)CCc2ccc(OC)c(OC)c2)C1 (centres unmarked)	5.89%
C=CP(=O)(O)c1ccccc1	14.7%
CC(=O)Nc1cc[n+](CC(=O)c2ccc(Cl)cc2)cc1.[Br-]	15.1%
Cc1cccc(-c2nnc(SCCOc3ccc4c(C)cc(=O)oc4c3)o2)c1	8.66%
CC(Oc1cccc(Cl)c1)C(=O)Nc1cc(S(=O)(=O)N2CCCCC2)ccc1N1CCOCC1 (centres unmarked)	0.476%
COc1ccc(N2C(=O)C3C(C2=O)C2C=CC3C23CC3)c([N+](=O)[O-])c1 (centres unmarked)	11.9%
COC(=O)C(CC(C)C)NC(=O)c1cc(OC)c(OC)c(OC)c1 (centres unmarked)	-1.33%
Cc1ccc(SCC(=O)N2CCOCC2)cc1	7.21%
CC1CCc2cc(F)ccc2N1C(=O)CSc1nnc2c(n1)[nH]c1ccc(F)cc12 (centres unmarked)	13.7%
COCCN1Cc2cccc(C(=O)Nc3ccc(C)cc3)c2C1=O	-2.34%
C#CCOCCOCCOCCNc1nc(N2CCN(C(=O)[C@H]([C@@H](C)CC)n3cc(CCC[NH+]=C(N)N)nn3)CC2)nc(N2CCN(C(=O)[C@H](CCCC[NH3+])n3cc(CCCC)nn3)CC2)n1.[Cl-]	10.2%
Cc1cc(N=Nc2ccc(Cl)cc2)cc(CN2CCCC2)c1O	13.8%
Cc1cc(C(=O)Nc2cccc(NC(=O)c3ccco3)c2)ccc1[N+](=O)[O-]	10%

SMILES	hERG current change (%, negative = inhibition) at 1uM
COc1ccccc1OCCNCC(O)COc1cccc2[nH]c3ccccc3c12 (centres unmarked)	-14.6%
CCOC(=S)SCc1cn2cccc(C)c2n1	10.1%
N#Cc1ccccc1S(=O)(=O)Nc1ccc2c(c1)C(=O)OC2	13.3%
O=Cc1ccc(OCc2nnc(-c3ccccc3Br)o2)cc1	-0.275%
Nn1c(COc2ccccc2F)nnc1SCC(=O)NC1CCS(=O)(=O)C1 (centres unmarked)	6.73%
NS(=O)(=O)c1ccc(CCNC(=O)c2ccc(-c3ccccc3)cc2)cc1	9.1%
O=C1Nc2cc(C(=O)NCCCN3CCOCC3)ccc2S/C1=C/c1cccc(Cl)c1	15.9%
CN(CC(=O)NCCc1ccccn1)S(=O)(=O)c1ccc(Cl)cc1	5.02%
COC(=O)C1(CCSC)NC(c2ccccc2OC)C2C(=O)N(C)C(=O)C21 (centres unmarked)	5.27%
COC(=O)C1=C(C)NC(=O)/C1=C\c1ccc2c(c1)OCO2	9.62%
O=C(CSc1ncn[nH]1)CSc1ncn[nH]1	16.8%
CC1CN(C(=O)C(C)N2CCN(c3ccccc3Cl)CC2)CC(C)O1 (centres unmarked)	12.1%
O=C(CC1C(=O)N(c2ccc(F)cc2)C(=O)N1Cc1ccccn1)Nc1ccccc1 (centres unmarked)	1.05%
O=C(O)c1cc(C(=O)C2CC2)c[nH]1	10%
Cc1ccccc1OCCCCn1c(CO)nc2ccccc21	-0.387%
O=C(CN(C1CCCCC1)S(=O)(=O)c1ccc(Cl)cc1)NCc1ccncc1	-49.5%
Cc1ccc(/C([O-])=C(/C(=S)NCCN2CCOCC2)[n+]2ccccc2)cc1[N+](=O)[O-]	12.4%
CCCCn1c(N)c(N(CC(C)C)C(=O)CCC2CCCCC2)c(=O)[nH]c1=O	15.4%
CCOc1ccc(NC(=O)Cn2nc(-c3ccccc3Cl)n(CC)c2=S)cc1	11.9%
CN(C)CCCn1c(=O)n(C2CCCCC2)c(=O)c2c3c(sc21)CCCCC3	-4.54%
O=C(Nc1ccc(S(=O)(=O)N2CCCCC2)cc1)c1ccccc1Cl	-19.1%
CC1CCc2c(sc3ncn(Cc4ccc(C(=O)O)cc4)c(=O)c23)C1 (centres unmarked)	16.9%

SMILES	hERG current change (%, negative = inhibition) at 1uM
COc1ccc(-n2c(O)c(C=NCC(c3ccco3)N3CCCC3)c3ccccc3c2=O)cc1OC (centres unmarked)	15.6%
COc1ccc(Cl)cc1N(CC(=O)Nc1ccccc1C(=O)NCc1ccco1)S(C)(=O)=O	10.6%
CC(NC(=O)c1cc(Br)ccc1Cl)c1ccccc1 (centres unmarked)	8.07%
CCc1c(C)nc2ncnn2c1NC1CCCc2ccccc21 (centres unmarked)	7.29%
O=C(NCCN1CCN(c2ccc([N+](=O)[O-])cc2)CC1)NCc1ccccc1	-20.2%
COc1ccc(N(CC(=O)N2CCN(C)CC2)S(=O)(=O)c2ccccc2)cc1OC	7.23%
COc1ccc(OCC(=O)OC2CCN(C)CC2)cc1.Cl	-0.291%
O=[N+]([O-])c1cccc2cn[nH]c12	8.24%
CC(NC(=O)COC(=O)CC(c1ccccc1)c1ccccc1)c1ccccc1 (centres unmarked)	15.4%
O=C(Nc1ccc(F)cc1)N1CCN(c2nc3ccccc3s2)CC1	12.3%
CC(=O)N1CCCC(C(=O)c2ccc(Oc3ccccc3)cc2)C1 (centres unmarked)	-3.12%
COC(=O)CCSc1cc([N+](=O)[O-])cc2c1c(C1OCCO1)nn2-c1ccccc1	16.4%
CCN(CC)S(=O)(=O)c1ccc(NC(=S)Nc2ccccc2)cc1	13.1%
CCc1c(O)cc(=O)n(-c2ccccc2)c1-c1ccccc1	10.4%
Cc1ccc(C)c(NC(=O)COC(=O)CCC(=O)c2cccs2)c1	16.3%
Cc1ccc(C(=O)Nc2ccccc2N2CCCC2)cc1S(=O)(=O)N1CCOCC1	3.22%
CCOc1cc(OCC)c(C(C)=O)cc1OCC	10.8%
CCC(c1nnnn1Cc1ccccc1)N1CCN(C(=O)c2ccco2)CC1 (centres unmarked)	-2.48%
O=C(Nc1ccccc1)c1c(O)c2c(n(Cc3ccco3)c1=O)CCCC2	13.1%
COC(=O)c1ccc(COC(=O)c2cccn2C)o1	8.18%
Cc1ccc(C(C(=O)NC(C)(C)C)N(CC2CCCO2)C(=O)Cn2nnc(-c3ccc(C)o3)n2)cc1 (centres unmarked)	6.88%
COc1ccc(C(=O)N(CC(=O)NC(C)(C)C)c2ccc3c(c2)OCCO3)cc1OC	-1.9%

SMILES	hERG current change (%, negative = inhibition) at 1uM
O=C(c1ccc(F)cc1)C1CCN(C(=O)c2ccncc2)CC1	2.11%
CN(C)C(=O)COC(=O)c1cc(Cl)cc(Cl)c1N	5.1%
CCCCOc1cccc(C(=O)Nc2ccc(N3CCN(CC)CC3)cc2)c1	7.22%
CCC(C)(C)NC(=O)c1ccc2c(c1)N(CC(=O)NC1CCCC1)C(=O)C(C)(C)O2	17.3%
COC(=O)c1cc(S(=O)(=O)N2CCOCC2)c(Cl)cc1N1CCOCC1	-5.16%
COc1ccc(NC(=O)CCC(=O)OCc2ccc(Br)cc2)cc1	4.54%
COCCCN1C2=C(C(=O)CC(C)(C)C2)C(c2ccc(O)c(OC)c2)C2=C1CC(C)(C)CC2=O	22.5%
Cc1cc(C)cc(-n2c(C)cc(C=C(C#N)C#N)c2C)c1	7.76%
COc1ccc(S(=O)(=O)Nc2nc3ccccc3nc2NCc2ccc3c(c2)OCO3)cc1	21.7%
CCC(=O)n1nc(-c2ccccc2)nc1N	15.3%
CCOc1ccc(NC(=O)CN(C)C(=O)CCCOc2ccc(Br)cc2)cc1OCC	8.21%
CC1CCC(NC(=O)CN2C(=O)NC(C)(C)C2=O)CC1 (centres unmarked)	11.9%
O=C1C2C3C=CC(C3=C(c3ccccc3)c3ccccc3)C2C(=O)N1Cc1ccccc1 (centres unmarked)	17.2%
Cc1cc(NS(=O)(=O)c2ccc(Br)s2)no1	18.9%
COc1ccc(CCN2C(=O)CC(N3CCN(c4ccccn4)CC3)C2=O)cc1OC (centres unmarked)	14.1%
COc1ccc(OC)c(S(=O)(=O)Nc2ccccc2SC)c1	0.168%
CS/C(=N\S(=O)(=O)c1ccc(Cl)cc1)c1ccccc1	9.93%
O=C(NCCN1CCN(C(=O)c2ccc([N+](=O)[O-])cc2)CC1)C(=O)Nc1ccc(F)cc1	-84.3%
O=C(c1ccco1)N1CCN(S(=O)(=O)c2ccc(Cl)s2)CC1	2.83%
Cc1cc(-c2nnc(SCC(=O)Nc3nc(-c4ccccc4)cs3)o2)no1	-3.9%

From publication PMC4336329 (PLoS ONE, 2015)
